Drawing on publication PMC6393405, this text covers binding for 2 molecules.

Protein sequences, listed by entry. Tags and fused reporters are not part of them. Lines headed by an entry give the natural chain unless they say otherwise; changes in a name come on top. Chains listed by the source or under a name are the forms on record and can include a tag or linker. Residues count along the entry.
GFP-tagged GluN2B WT (Q00960, residues 27-1482): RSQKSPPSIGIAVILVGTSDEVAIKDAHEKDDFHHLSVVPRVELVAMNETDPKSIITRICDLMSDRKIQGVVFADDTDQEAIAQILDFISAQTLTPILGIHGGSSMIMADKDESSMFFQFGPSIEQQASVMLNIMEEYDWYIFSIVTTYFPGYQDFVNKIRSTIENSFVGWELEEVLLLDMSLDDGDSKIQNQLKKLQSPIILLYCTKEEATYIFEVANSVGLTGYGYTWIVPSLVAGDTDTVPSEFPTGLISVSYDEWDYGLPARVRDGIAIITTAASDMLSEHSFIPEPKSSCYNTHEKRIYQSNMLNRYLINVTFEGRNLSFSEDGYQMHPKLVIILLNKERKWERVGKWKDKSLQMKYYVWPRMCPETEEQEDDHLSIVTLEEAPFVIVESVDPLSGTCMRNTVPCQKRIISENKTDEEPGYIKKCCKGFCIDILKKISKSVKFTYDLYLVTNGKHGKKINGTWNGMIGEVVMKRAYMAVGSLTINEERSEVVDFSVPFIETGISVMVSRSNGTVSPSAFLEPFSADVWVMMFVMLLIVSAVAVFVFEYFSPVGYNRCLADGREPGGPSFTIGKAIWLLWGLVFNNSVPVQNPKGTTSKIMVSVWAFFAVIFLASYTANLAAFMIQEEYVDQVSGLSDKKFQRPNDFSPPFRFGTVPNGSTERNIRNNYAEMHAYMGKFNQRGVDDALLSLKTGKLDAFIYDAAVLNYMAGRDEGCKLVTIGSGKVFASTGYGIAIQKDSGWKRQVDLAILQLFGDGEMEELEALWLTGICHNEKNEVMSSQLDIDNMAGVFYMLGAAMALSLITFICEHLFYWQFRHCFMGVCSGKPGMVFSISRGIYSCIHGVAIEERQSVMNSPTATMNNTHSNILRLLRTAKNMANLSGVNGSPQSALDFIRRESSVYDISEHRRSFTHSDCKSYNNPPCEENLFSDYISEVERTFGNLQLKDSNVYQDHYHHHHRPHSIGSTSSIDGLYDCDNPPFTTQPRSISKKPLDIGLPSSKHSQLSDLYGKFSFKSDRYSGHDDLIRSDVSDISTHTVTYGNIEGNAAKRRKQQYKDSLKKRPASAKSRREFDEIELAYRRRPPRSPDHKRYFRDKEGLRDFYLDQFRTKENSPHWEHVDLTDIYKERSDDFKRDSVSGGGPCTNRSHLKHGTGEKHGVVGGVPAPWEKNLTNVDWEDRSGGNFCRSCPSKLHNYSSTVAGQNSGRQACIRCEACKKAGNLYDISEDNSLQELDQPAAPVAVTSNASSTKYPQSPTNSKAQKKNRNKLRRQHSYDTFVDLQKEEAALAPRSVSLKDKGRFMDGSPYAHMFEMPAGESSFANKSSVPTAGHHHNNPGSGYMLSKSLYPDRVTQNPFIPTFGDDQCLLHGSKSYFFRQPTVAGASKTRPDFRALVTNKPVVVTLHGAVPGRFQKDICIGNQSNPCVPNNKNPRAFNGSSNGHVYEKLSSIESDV
GFP-tagged GluN2B 3CS (Cys cluster I palmitoylation-deficient mutant) (Q00960, form named): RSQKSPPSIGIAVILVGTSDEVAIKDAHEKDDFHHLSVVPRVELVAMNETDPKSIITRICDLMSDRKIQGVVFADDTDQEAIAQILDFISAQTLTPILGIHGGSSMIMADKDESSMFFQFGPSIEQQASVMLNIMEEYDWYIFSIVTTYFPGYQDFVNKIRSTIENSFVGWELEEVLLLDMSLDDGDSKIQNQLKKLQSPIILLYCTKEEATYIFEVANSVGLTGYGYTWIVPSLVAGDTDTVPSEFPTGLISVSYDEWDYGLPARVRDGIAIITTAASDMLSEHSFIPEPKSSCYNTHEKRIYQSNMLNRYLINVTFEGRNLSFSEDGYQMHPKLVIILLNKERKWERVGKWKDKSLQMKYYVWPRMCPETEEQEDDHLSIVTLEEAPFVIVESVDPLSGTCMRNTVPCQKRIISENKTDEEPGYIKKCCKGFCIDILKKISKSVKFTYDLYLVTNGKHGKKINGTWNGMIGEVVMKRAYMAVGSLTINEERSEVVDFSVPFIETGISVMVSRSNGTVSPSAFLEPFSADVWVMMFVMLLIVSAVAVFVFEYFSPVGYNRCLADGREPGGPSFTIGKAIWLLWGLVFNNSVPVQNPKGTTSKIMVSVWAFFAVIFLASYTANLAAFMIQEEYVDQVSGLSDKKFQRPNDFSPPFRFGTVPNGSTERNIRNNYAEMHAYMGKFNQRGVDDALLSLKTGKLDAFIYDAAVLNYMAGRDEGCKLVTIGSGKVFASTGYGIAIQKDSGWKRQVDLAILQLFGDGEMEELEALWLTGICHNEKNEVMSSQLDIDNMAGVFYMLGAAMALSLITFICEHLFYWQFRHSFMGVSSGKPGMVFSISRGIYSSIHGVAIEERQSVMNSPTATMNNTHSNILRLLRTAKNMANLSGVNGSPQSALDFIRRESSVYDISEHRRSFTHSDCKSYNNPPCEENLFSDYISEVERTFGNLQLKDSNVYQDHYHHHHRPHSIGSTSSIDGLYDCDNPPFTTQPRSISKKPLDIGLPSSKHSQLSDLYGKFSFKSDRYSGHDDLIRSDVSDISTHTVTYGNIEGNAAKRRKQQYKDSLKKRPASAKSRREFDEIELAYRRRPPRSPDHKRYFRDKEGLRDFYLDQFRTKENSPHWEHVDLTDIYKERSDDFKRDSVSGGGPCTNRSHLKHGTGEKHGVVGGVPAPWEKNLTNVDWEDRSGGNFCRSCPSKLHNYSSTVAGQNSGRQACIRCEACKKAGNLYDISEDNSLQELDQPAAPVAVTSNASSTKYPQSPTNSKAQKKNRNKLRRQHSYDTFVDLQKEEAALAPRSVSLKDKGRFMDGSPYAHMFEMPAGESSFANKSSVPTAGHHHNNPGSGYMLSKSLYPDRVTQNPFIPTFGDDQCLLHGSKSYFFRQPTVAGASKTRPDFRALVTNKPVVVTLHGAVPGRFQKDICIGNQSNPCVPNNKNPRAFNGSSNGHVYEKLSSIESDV
GFP-tagged GluN2B 5CS (Cys cluster II palmitoylation-deficient mutant) (Q00960, form named): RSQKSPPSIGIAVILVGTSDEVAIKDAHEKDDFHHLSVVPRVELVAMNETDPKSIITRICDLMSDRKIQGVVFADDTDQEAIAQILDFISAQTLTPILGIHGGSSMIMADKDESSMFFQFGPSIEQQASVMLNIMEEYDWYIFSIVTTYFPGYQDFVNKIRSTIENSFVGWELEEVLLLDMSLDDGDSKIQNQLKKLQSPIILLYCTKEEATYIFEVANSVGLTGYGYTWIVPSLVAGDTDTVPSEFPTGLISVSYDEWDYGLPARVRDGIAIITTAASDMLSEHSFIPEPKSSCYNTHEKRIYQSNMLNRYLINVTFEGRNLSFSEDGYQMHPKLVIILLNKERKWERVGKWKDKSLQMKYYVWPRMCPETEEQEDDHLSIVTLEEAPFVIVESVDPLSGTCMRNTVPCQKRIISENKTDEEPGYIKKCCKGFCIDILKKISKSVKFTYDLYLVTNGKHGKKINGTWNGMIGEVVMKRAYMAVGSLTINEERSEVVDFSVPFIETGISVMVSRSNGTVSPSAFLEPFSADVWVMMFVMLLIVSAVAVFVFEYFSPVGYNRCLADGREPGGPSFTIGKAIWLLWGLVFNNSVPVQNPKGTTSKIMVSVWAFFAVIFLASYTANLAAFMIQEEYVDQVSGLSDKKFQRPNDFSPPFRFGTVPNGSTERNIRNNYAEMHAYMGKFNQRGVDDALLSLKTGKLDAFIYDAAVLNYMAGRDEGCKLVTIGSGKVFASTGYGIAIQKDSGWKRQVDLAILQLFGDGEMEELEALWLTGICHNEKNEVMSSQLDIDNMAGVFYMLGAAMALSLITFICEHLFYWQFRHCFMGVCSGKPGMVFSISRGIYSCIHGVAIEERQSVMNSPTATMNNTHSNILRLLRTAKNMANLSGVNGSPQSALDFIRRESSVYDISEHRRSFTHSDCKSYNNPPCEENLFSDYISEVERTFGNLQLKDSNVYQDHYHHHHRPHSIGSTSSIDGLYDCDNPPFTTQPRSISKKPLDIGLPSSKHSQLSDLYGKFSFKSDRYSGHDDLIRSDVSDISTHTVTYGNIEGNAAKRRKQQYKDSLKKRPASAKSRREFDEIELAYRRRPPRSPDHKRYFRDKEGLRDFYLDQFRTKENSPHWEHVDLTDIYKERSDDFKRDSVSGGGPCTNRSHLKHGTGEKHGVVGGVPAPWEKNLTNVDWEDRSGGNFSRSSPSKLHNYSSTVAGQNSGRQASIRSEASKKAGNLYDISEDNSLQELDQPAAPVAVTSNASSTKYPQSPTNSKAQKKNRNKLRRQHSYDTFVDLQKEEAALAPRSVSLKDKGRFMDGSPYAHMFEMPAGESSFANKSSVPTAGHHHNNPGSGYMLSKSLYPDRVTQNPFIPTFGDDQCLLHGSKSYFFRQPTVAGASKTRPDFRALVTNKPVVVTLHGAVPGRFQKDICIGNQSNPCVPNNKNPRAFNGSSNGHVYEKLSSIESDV
UniProt Q8IUH5: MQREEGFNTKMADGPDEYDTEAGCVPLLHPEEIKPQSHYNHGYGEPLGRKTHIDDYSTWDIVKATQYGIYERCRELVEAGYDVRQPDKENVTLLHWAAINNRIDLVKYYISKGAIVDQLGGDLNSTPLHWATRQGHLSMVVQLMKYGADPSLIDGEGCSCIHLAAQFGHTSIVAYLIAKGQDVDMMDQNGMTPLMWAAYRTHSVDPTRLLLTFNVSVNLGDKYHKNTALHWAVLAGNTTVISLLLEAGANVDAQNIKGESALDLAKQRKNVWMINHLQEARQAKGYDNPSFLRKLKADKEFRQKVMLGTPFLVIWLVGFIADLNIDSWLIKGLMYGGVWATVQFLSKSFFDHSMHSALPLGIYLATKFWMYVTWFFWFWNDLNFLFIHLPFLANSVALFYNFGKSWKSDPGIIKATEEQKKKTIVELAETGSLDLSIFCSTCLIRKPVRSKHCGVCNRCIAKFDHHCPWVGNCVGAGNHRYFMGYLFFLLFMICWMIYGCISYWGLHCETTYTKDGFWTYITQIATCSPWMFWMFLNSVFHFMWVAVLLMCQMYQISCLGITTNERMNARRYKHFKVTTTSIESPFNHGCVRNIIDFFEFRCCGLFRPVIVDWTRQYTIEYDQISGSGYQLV

What all share (assay): co-IP; COS-7 cells co-transfected with GFP-GluN2B (WT, 5CS or 3CS), HA-GluN1-1A and HIP14-Flag or HIP14L-Flag, 36 h; lysis in 150 mM NaCl, 50 mM Tris pH 7.4, 5 mM EGTA, 0.2% SDS, 1% Triton X-100; precipitated with anti-GFP antibody at 4°C overnight, blot probed with anti-Flag
The target in assay [1] is GFP-tagged GluN2B 3CS (Cys cluster I palmitoylation-deficient mutant) (UniProt Q00960).
The next assay addresses GFP-tagged GluN2B WT (UniProt Q00960).
Assay [2] has as its target GFP-tagged GluN2B 5CS (Cys cluster II palmitoylation-deficient mutant) (UniProt Q00960).
Assay [3] concerns the target GFP-tagged GluN2B 3CS (Cys cluster I palmitoylation-deficient mutant) (UniProt Q00960). The source holds these as a separate data set.
Assay [4] concerns the target GFP-tagged GluN2B 5CS (Cys cluster II palmitoylation-deficient mutant) (UniProt Q00960). This is another data set of the same source.

Where two headings read alike, the source gives them in different places. Results are given in words; binding and its absence hold for the method and conditions named. Binding seen in cells or lysates may run through a third protein. Some binding calls cover weakened binding; strength is not graded here. For some assays here: Tags and fused reporters may be left off the sequences shown.

As to “HIP14-Flag (huntingtin-interacting protein 14, zDHHC17) (from UniProt Q8IUH5 1-632) (enzyme)”, the binding entry (in assay [1]; in the assay with GFP-tagged GluN2B WT; in assay [2]) was “binds” throughout.

B1: HIP14L-Flag (huntingtin-interacting protein 14-like, zDHHC13) (enzyme, UniProt Q8IUH4 1-622)
chain: MEGPGLGSQCRNHSHGPHPPGFGRYGICAHENKELANAREALPLIEDSSNCDIVKATQYGIFERCKELVEAGYDVRQPDKENVSLLHWAAINNRLDLVKFYISKGAVVDQLGGDLNSTPLHWAIRQGHLPMVILLLQHGADPTLIDGEGFSSIHLAVLFQHMPIIAYLISKGQSVNMTDVNGQTPLMLSAHKVIGPEPTGFLLKFNPSLNVVDKIHQNTPLHWAVAAGNVNAVDKLLEAGSSLDIQNVKGETPLDMALQNKNQLIIHMLKTEAKMRANQKFRLWRWLQKCELFLLLMLSVITMWAIGYILDFNSDSWLLKGCLLVTLFFLTSLFPRFLVGYKNLVYLPTAFLLSSVFWIFMTWFILFFPDLAGAPFYFSFIFSIVAFLYFFYKTWATDPGFTKASEEEKKVNIITLAETGSLDFRTFCTSCLIRKPLRSLHCHVCNCCVARYDQHCLWTGRCIGFGNHHYYIFFLFFLSMVCGWIIYGSFIYLSSHCATTFKEDGLWTYLNQIVACSPWVLYILMLATFHFSWSTFLLLNQLFQIAFLGLTSHERISLQKQSKHMKQTLSLRKTPYNLGFMQNLADFFQCGCFGLVKPCVVDWTSQYTMVFHPAREKVLRSV
For B1, the binding result was “binds weakly” in assay [3] and “no binding” in assay [4].
